# The campaign covered roughly 45,000 compounds. About 200 (0.44%) were called active. The shares of active, inactive and inconclusive entries below differ from those in the screen. Calls follow the shape of the dose curve; as a rule, active = well fitted activation curve with a large enough effect; inconclusive = small, poorly fitted or top-dose-only effect; inactive = no such curve, though single readings can be large or run the other way. Potencies beside an inconclusive call are fits to weak or partial responses and may not hold up.
# Test: qHTS of TDP-43 Inhibitors: NCGC Sytravon Library Screen; also: nearly all actives have a fitted effect of over 55% in size; as to growth rescue (activation): 0% is about no effect
# Details: yeast TDP-43 toxicity rescue, BacTiter-Glo growth, 24 h; growth rescue (activation): at 46.1 µM (top of the series)
# Method in brief: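 TDP-43-expressing yeast, pregrown in raffinose, seeded at OD600 0.02 in galactose medium with compound for 24 hr at 30 deg C. Growth read by BacTiter-Glo luminescence, so rescue of toxicity appears as activation.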
# Potency is read from the fitted curve at half-maximal effect; tags tell the direction and shape of the fitted curve.
SMILES,Potency,growth rescue (activation)
C[n+]1cccc2c(Br)ccc([O-])c21,inactive,–
COc1ccc(NC(=O)/C=C/c2ccccc2[N+](=O)[O-])c(OC)c1,"inconclusive: 14.1 µM [activator, single point]",–
Cc1cccc(C)c1Nc1nnc(SCC(=O)c2ccc(Br)s2)s1,"inconclusive: 20 µM [activator, single point]",–
Cc1ccc(/C=C(\C#N)C(=O)N2CCCC2)c(C)c1,"inconclusive: 22.4 µM [activator, single point]",–
Cc1ccc(CC2(C)C(=O)Nc3c(Cl)ccc(Cl)c32)cc1 (centres undefined),–,inconclusive: 58.5% [activator]
CCCOc1ccc(/C=C/C(=O)O)cc1OC,"inconclusive: 35.5 µM [activator, single point]",–
CSc1nnc2c(n1)OC=Nc1ccc(Br)cc1-2,inactive,–
COc1ccc(NC(=O)CSc2nc3ccccc3nc2N2CCC(C)CC2)cc1,inactive,–
O=[N+]([O-])c1cc(Cl)c2cccnc2c1O,"inconclusive: 3.16 µM [activator, partial curve, poor fit]",–
COc1ccc(N(C(=O)c2ccncc2)S(=O)(=O)c2cccs2)cc1,"inconclusive: 35.5 µM [activator, single point]",–
CCN(CC)S(=O)(=O)c1ccc(N2CCCC2)c(NC(=O)c2ccc(OC)cc2OC)c1,"inconclusive: 12.6 µM [activator, partial curve, poor fit]",–
Cc1ccc(-c2csc3ncnc(-n4cnc5ccccc54)c23)cc1,"inconclusive: 15.8 µM [activator, partial curve, poor fit]",–
O=C(c1cc(Cl)ccc1[N+](=O)[O-])N1CCc2ccccc2C1,"inconclusive: 22.4 µM [activator, partial curve, poor fit]",–
COc1cccc(-c2nn(-c3ccccc3)cc2/C=C(/NC(=O)c2ccccc2)C(=O)O)c1,"inconclusive: 35.5 µM [activator, partial curve, poor fit]",–
CCn1c(NC(=O)/C=C/c2ccc(F)cc2)nc2ccccc21,"inconclusive: 22.4 µM [activator, single point]",–
c1cncc(-c2nc(-c3cccs3)cs2)c1,"inconclusive: 15.8 µM [activator, partial curve, poor fit]",–
O=C(CN1CCCc2ccccc21)NCc1ccccc1Cl,"inconclusive: 11.2 µM [activator, partial curve, poor fit]",–
OC(c1ccc(-c2ccccc2)cc1)c1ncc(-c2ccc(C(F)(F)F)cc2)[nH]1 (centres undefined),inactive,–
COc1cc(-c2nc3sccn3c2Nc2cccc(C)c2)ccc1O,inactive,–
O=C(Nc1ccc(F)cc1)c1ccc(Br)c(S(=O)(=O)N2CCOCC2)c1,inactive,–
O=C1CN(c2ccc(Cl)cc2)C2(CCCCC2)S1,"inconclusive: 10 µM [activator, partial curve, poor fit]",–
CN(c1ccccc1)S(=O)(=O)c1cccc(NC(=O)c2ccc(=O)[nH]n2)c1,inactive,–

SMILES,Potency,growth rescue (activation)
Cc1c2cnn(-c3ccccc3)c(=O)c2c(C)n1CC(=O)NCc1ccccc1Br,inactive,–
Cc1ccc(-c2csc(C(O)c3cccc(Cl)c3)n2)cc1C (centres undefined),–,inconclusive: 49% [activator]
COc1ccc(N2CCN(C(=O)NCc3ccc(C)cc3)CC2)cc1,"inconclusive: 8.91 µM [activator, partial curve, poor fit]",–
CCCCCSc1nnc2c(n1)OC(c1ccc(C)s1)N(C(C)=O)c1ccccc1-2 (centres undefined),"inconclusive: 31.6 µM [activator, single point]",–
O=C(NCCOc1ccc(F)cc1)C1CCC(=O)N(CCN2CCOCC2)C1 (centres undefined),inactive,–
CCCC(=O)N(c1ccc2oc(-c3ccccc3)c(C(=O)OCC)c2c1)S(=O)(=O)c1ccc(C)cc1,inactive,–
Cc1ccc(S(=O)(=O)NCC(=O)NNC(=O)c2ccccc2Cl)cc1C,inactive,–
O=C(OCc1ccc(Cl)c(Cl)c1)c1cccnc1Cl,"inconclusive: 10 µM [activator, partial curve, poor fit]",–
CC1(C(=O)NCc2ccccc2)Cc2c(-c3cccc(C(F)(F)F)c3)ccnc2O1 (centres undefined),–,inconclusive: 56.5% [activator]
O=C(CSCc1ccc([N+](=O)[O-])cc1)NC1CCCCCC1,"inconclusive: 11.2 µM [activator, single point]",–
CC(C)(C)C(=O)NC(=S)NNC(=O)c1ccc(Cl)cc1Cl,"inconclusive: 7.94 µM [activator, partial curve, poor fit]",–
COc1ccc(-c2onc(C)c2-c2ccc(C(=O)OC(C)C)o2)c(O)c1,active: 15.8 µM,–
COc1ccccc1NC(=O)[C@@H]1CCCN1S(=O)(=O)c1ccc(Cl)cc1,"inconclusive: 28.2 µM [activator, partial curve, poor fit]",–
O=C(Nc1nnc([C@H]2C[C@H](O)[C@@H](CO)O2)s1)Nc1ccc(F)cc1F,inactive,–
CC1(C(=O)O)CCC(C(N)=O)C1(C)C (centres undefined),"inconclusive: 35.5 µM [activator, single point]",–
Fc1cccc(NC(=S)NCCc2ccccc2)c1,"inconclusive: 17.8 µM [activator, partial curve, poor fit]",–
COc1ccc(N=C2SC(CC(=O)Nc3cccc(Cl)c3)C(=O)N2Cc2ccco2)cc1 (centres undefined),"inconclusive: 11.2 µM [activator, partial curve, poor fit]",–
CC1(C(=O)NS(=O)(=O)c2ccc(F)cc2F)CCN1C(=O)c1ccccc1 (centres undefined),inactive,–
Cc1cccc(Nc2nc3ccccc3s2)c1C,"inconclusive: 2.82 µM [activator, full curve, poor fit]",–
COc1ccc(/C=C/c2nc(-c3ccccc3O)n[nH]2)cc1,"inconclusive: 2.51 µM [activator, full curve]",–
CO/N=C/c1ccc(Sc2ccccc2)c([N+](=O)[O-])c1,"inconclusive: 14.1 µM [activator, single point]",–
COc1ccc2[nH]c3c(=O)n(CCN4CCOCC4)cnc3c2c1,"inconclusive: 35.5 µM [activator, single point]",–

# Reference: PubChem BioAssay AID1347073 (National Center for Advancing Translational Sciences (NCATS), 2019)
